# Test results reported in PubChem BioAssay AID2202238 (Ras Initiative Chemistry Research Team, Frederick National …, 2025).
# The other results are listed elsewhere or left out. These are further read-outs of the screen, such as a control signal, another cell line or another target. No call is given for them.
# Molecular target: GTPase KRas (Homo sapiens) (UniProt P01116)
# Assay: Cysteine mutants labelled by reactive fragments (mass read-out) (AID 2202238)
# Set-up: protein at 5 µM with 500 µM competing thiol for 1.5 h
# Details: KRAS G12D cysteine mutants, disulfide tethering, MALDI-TOF labeling, stronger effect = higher value, fragment at 500 µM
# [1] = measured here: G75C mutant labeling
# [2] = measured here: H94C mutant labeling
# [3] = measured here: I36C mutant labeling
# [4] = measured here: L120C mutant labeling
# [5] = measured here: M67C mutant labeling
# [6] = measured here: M72C mutant labeling
# [7] = measured here: N86C mutant labeling
# [8] = measured here: P121C mutant labeling
# [9] = measured here: S122C mutant labeling
# [10] = measured here: S136C mutant labeling
# [11] = measured here: G60C mutant labeling
# [12] = measured here: N26C mutant labeling
# Sequence of UniProt P01116 (P01116 whole entry, looked up, the tested form may be a part): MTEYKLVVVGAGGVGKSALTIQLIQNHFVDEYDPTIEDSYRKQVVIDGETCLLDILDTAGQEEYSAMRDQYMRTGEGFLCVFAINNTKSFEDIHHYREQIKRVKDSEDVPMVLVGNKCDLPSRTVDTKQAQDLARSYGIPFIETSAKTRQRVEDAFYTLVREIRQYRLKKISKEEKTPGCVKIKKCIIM
Structure (SMILES),percent labeling [1],percent labeling [2],percent labeling [3],percent labeling [4],percent labeling [5],percent labeling [6],percent labeling [7],percent labeling [8],percent labeling [9],percent labeling [10],percent labeling [11],percent labeling [12]
CN1CCCC2(CCN(C(=O)CCS)CC2)C1,20.3%,31%,45.7%,36.7%,46.1%,20.8%,30.6%,32.9%,29.7%,54.8%,,
CN1CCc2nc3ccccc3c(C(=O)NCCS)c2C1,17.6%,36.4%,31.3%,27.2%,40.5%,35%,28.6%,34.3%,31.5%,57.6%,51.5%,46.6%
CCOC(=O)C12CC(CNC(=O)CCS)(C1)OC2c1ccccc1 (configuration not stated),8.8%,17.1%,23.1%,20.1%,27.6%,17.2%,7.7%,23.9%,21.9%,46.6%,,
O=C(CCS)N1C[C@@H]2C[C@H](C1)c1cccc(=O)n1C2,7%,28.1%,32.9%,29.1%,40.8%,11.9%,16.8%,35.1%,33.3%,48.5%,,
N#Cc1cc2c([nH]c1=O)CC1CCC2N1C(=O)CCS (configuration not stated),10.1%,31%,37.3%,32.1%,37.2%,21.5%,34.4%,33.7%,33.6%,49.7%,,
O=C(CCS)NCC12CC(CN1C1CC1)C2,20.6%,34.9%,45.4%,24.3%,49.5%,23.8%,31.4%,34.6%,36.5%,49.3%,,
Cc1c(C(=O)NCCS)c2ccccc2n1Cc1ccccc1,12.5%,14.9%,10.5%,12.5%,8.6%,27.7%,10.7%,10.9%,5%,10.1%,54.8%,24.3%
O=C(NCCS)c1cn(Cc2ccccc2)c2ccccc12,8.6%,12.1%,9.3%,12.8%,11.5%,28.2%,12.2%,10.8%,7.2%,12.4%,24.4%,23.3%
O=C(NCCS)C1CCCC2CCCN21 (configuration not stated),24%,43.6%,43.5%,36.2%,43.3%,35.4%,31%,34.5%,34.2%,53%,40.7%,43.2%
N#Cc1ccc(N2CC(C(=O)NCCS)CC2=O)cc1Cl (configuration not stated),10.4%,20.5%,22.1%,17.2%,18%,29.1%,16.3%,15.6%,11.5%,20.9%,33.4%,33.2%
Cc1cc(NC(=O)CCS)cc(N2CCN(C)CC2)c1,16%,43%,43.5%,38.9%,43.4%,42.4%,24.3%,34.1%,35.6%,52.6%,,
O=C(NCCS)C1CCC2CCCCN21 (configuration not stated),28.8%,46.4%,32.6%,33.4%,38.1%,37.4%,33%,35.1%,36.5%,52.5%,46.4%,40.5%
